The whole screen tested about 3,200 compounds, of which about 75 (2%) showed an effect of 50% or more. The list shows a part of the results.
system: T1, S. aureus MSSA476; design: species or system S. aureus MSSA476 (TSB) or V. cholerae SAD30 (LB); 384-well bacterial growth screen at 25 uM, OD600 relative to DMSO control; settings: relative growth, OD600, TSB; 25 µM; inhibitor
T1 construct: MSSA476

| SMILES | % of control remaining [%] |
| --- | --- |
| CC(Cl)C(=O)NC1CCN(Cc2cscn2)CC1 (stereo not shown) [7-D07, 2-chloro-N-{1-[(1,3-thiazol-4-yl)methyl]piperidin-4-yl}propanamide] | 107.378 |
| CC(Cl)C(=O)NC1(C(=O)N(C)C)CC(F)(F)C1 (stereo not shown) [7-K20, 1-(2-chloropropanamido)-3,3-difluoro-N,N-dimethylcyclobutane-1-carboxamide] | 98.5871 |
| CCC1SC(=C(C#N)C(N)=O)N(c2ccc(C)cc2)C1=O (stereo not shown) [8-J15, 2-cyano-2-[5-ethyl-3-(4-methylphenyl)-4-oxo-1,3-thiazolidin-2-ylidene]acetamide] | 108.88 |
| COc1ccc([C@H]2C[C@H](NC(=O)C(C)Cl)C2)cc1F (stereo partly shown) [6-F17, 2-chloro-N-[(1r,3r)-3-(3-fluoro-4-methoxyphenyl)cyclobutyl]propanamide] | 93.9024 |
| Cc1cc(C=C(C#N)C(=O)Nc2ccccc2)c(C)n1C1CC1 [8-E14, 2-cyano-3-(1-cyclopropyl-2,5-dimethyl-1H-pyrrol-3-yl)-N-phenylprop-2-enamide] | 129.793 |
| CC1(C)Cc2cc(C=C(C#N)C(=O)Nc3ccccc3F)ccc2O1 [8-G20, 2-cyano-3-(2,2-dimethyl-2,3-dihydro-1-benzofuran-5-yl)-N-(2-fluorophenyl)prop-2-enamide] | 91.6183 |
| N#CC(=Cc1cccnc1)C(=O)NCc1ccccc1 [9-I14, N-benzyl-2-cyano-3-(pyridin-3-yl)prop-2-enamide] | 112.959 |
| Cc1cc(C)c(CCNC(=O)CCl)c(C)c1 [6-K06, 2-chloro-N-[2-(2,4,6-trimethylphenyl)ethyl]acetamide] | 77.1707 |
| CN(C(=O)CCl)c1c(N)n(Cc2ccccc2)c(=O)[nH]c1=O [4-E06, N-(6-amino-1-benzyl-2,4-dioxo-1,2,3,4-tetrahydropyrimidin-5-yl)-2-chloro-N-methylacetamide] | 94.9023 |
| C=CC(=O)N(Cc1cc(F)cc(Cl)c1)C(C)C1CCOCC1 (stereo not shown) [1-F13, N-[(3-chloro-5-fluorophenyl)methyl]-N-[1-(oxan-4-yl)ethyl]prop-2-enamide] | 112.879 |
| Cc1c(C#N)c(NC(=O)CCl)n(Cc2ccc(F)cc2)c1C [4-O21, 2-chloro-N-{3-cyano-1-[(4-fluorophenyl)methyl]-4,5-dimethyl-1H-pyrrol-2-yl}acetamide] | 115.484 |
| CCOc1ccc(C(=O)CCl)cc1 [10-F12, 2-chloro-1-(4-ethoxyphenyl)ethan-1-one] | 0.3125 |
| C=CC(=O)N1CCOCC2(CC2)C1 [2-M15, 1-{5-oxa-8-azaspiro[2.6]nonan-8-yl}prop-2-en-1-one] | 110.009 |
| CCN(C(=O)CCl)c1cccc2ccccc12 [5-B08, 2-chloro-N-ethyl-N-(naphthalen-1-yl)acetamide] | 124.226 |
| CC(Cl)C(=O)Nc1cc2c(cc1Cl)C(=O)c1ccccc1C2=O (stereo not shown) [4-I12, 2-chloro-N-(3-chloro-9,10-dioxo-9,10-dihydroanthracen-2-yl)propanamide] | 121.963 |
| C=CC(=O)N(C)CC(=O)N1CCc2ccc(S(C)(=O)=O)cc2CC1 [2-N08, N-[2-(7-methanesulfonyl-2,3,4,5-tetrahydro-1H-3-benzazepin-3-yl)-2-oxoethyl]-N-methylprop-2-enamide] | 106.527 |
| CCN(CC)S(=O)(=O)c1cc(NC(=O)C(C)Cl)ccc1C (stereo not shown) [4-P09, 2-chloro-N-[3-(diethylsulfamoyl)-4-methylphenyl]propanamide] | 98.7137 |
| COc1ccc(C=C(C#N)C(=O)Nc2ccccc2OC)cc1 [8-G09, 2-cyano-N-(2-methoxyphenyl)-3-(4-methoxyphenyl)prop-2-enamide] | 132.448 |
| CC(Cl)C(=O)N1CCN(CC(F)(F)C(F)F)CC1 (stereo not shown) [7-J07, 2-chloro-1-[4-(2,2,3,3-tetrafluoropropyl)piperazin-1-yl]propan-1-one] | 107.064 |
| N#CC(=Cc1c[nH]c2ccccc12)C(=O)Nc1ccccn1 [9-B10, 2-cyano-3-(1H-indol-3-yl)-N-(pyridin-2-yl)prop-2-enamide] | 79.4007 |
| Cc1nc2n(n1)CCCC2NC(=O)CCl (stereo not shown) [7-F12, 2-chloro-N-{2-methyl-5H,6H,7H,8H-[1,2,4]triazolo[1,5-a]pyridin-8-yl}acetamide] | 99.843 |
| Cc1cc(CN(C(=O)CCl)C2CCCC2)c2ccccc2n1 [7-B20, 2-chloro-N-cyclopentyl-N-[(2-methylquinolin-4-yl)methyl]acetamide] | 93.2496 |

| SMILES | % of control remaining [%] |
| --- | --- |
| N#CC(=Cc1ccc(C#N)cc1)C(=O)Nc1cccc2ccccc12 [8-O16, 2-cyano-3-(4-cyanophenyl)-N-(naphthalen-1-yl)prop-2-enamide] | 107.552 |
| CC(C)c1ccc(CN(C(=O)CCl)C2CC2)cc1 [6-K18, 2-chloro-N-cyclopropyl-N-{[4-(propan-2-yl)phenyl]methyl}acetamide] | 91.1707 |
| O=C(CCl)NCCOc1cccc(Cl)c1 [6-G05, 2-chloro-N-[2-(3-chlorophenoxy)ethyl]acetamide] | 76.4878 |
| N#CC(=Cc1csc(-c2ccsc2)n1)C(=O)NC1CC1 [9-N18, 2-cyano-N-cyclopropyl-3-[2-(thiophen-3-yl)-1,3-thiazol-4-yl]prop-2-enamide] | 131.236 |
| C=CC(=O)NCc1cccc(-c2nnc[nH]2)c1 [1-I18, N-{[3-(4H-1,2,4-triazol-3-yl)phenyl]methyl}prop-2-enamide] | 105.846 |
| C=CC(=O)N(Cc1ccc(F)cn1)c1cnn(C2CCCC2)c1C [1-D11, N-(1-cyclopentyl-5-methyl-1H-pyrazol-4-yl)-N-[(5-fluoropyridin-2-yl)methyl]prop-2-enamide] | 98.1099 |
| N#CC(=Cc1ccc(Cl)cc1Cl)C(=O)Nc1ccncc1 [8-M22, 2-cyano-3-(2,4-dichlorophenyl)-N-(pyridin-4-yl)prop-2-enamide] | 95.6017 |
| C=CC(=O)N1CCC(C(=O)NCc2cc(=O)n3ccccc3n2)CC1 [3-L12, N-({4-oxo-4H-pyrido[1,2-a]pyrimidin-2-yl}methyl)-1-(prop-2-enoyl)piperidine-4-carboxamide] | 102.743 |
| CC(Cl)C(=O)N(C)Cc1ncnn1CC(F)F (stereo not shown) [7-C10, 2-chloro-N-{[1-(2,2-difluoroethyl)-1H-1,2,4-triazol-5-yl]methyl}-N-methylpropanamide] | 104.239 |
| CC(C)NC(=O)C(C#N)=Cc1cccs1 [8-H15, 2-cyano-N-(propan-2-yl)-3-(thiophen-2-yl)prop-2-enamide] | 112.531 |
| O=C(CCl)N[C@H]1CCN(S(=O)(=O)c2ccccc2)C1 [7-P16, N-[(3S)-1-(benzenesulfonyl)pyrrolidin-3-yl]-2-chloroacetamide] | 101.413 |
| N#CC(=Cc1cccnc1)C(=O)Nc1ccc(F)cc1 [8-B21, 2-cyano-N-(4-fluorophenyl)-3-(pyridin-3-yl)prop-2-enamide] | 109.876 |
| N#CC(=Cc1ccccc1Cl)C(=O)Nc1ccc2c(c1)OCCO2 [8-F03, 3-(2-chlorophenyl)-2-cyano-N-(2,3-dihydro-1,4-benzodioxin-6-yl)prop-2-enamide] | 109.876 |
| Cc1ccccc1NC(=O)C(C#N)=Cc1ccsc1 [8-K15, 2-cyano-N-(2-methylphenyl)-3-(thiophen-3-yl)prop-2-enamide] | 116.846 |
| Cc1ccccc1CN1CCC(NC(=O)CCl)CC1.Cl [6-L08, 2-chloro-N-{1-[(2-methylphenyl)methyl]piperidin-4-yl}acetamide hydrochloride] | 130.78 |
| O=C(CCl)N1CCn2c(cc3ccccc32)C1 [5-A20, 2-chloro-1-{1H,2H,3H,4H-pyrazino[1,2-a]indol-2-yl}ethan-1-one] | 152.641 |
| CC(NC(=O)C(C#N)=Cc1cc(O)ccc1[N+](=O)[O-])c1ccccc1 (stereo not shown) [9-D15, 2-cyano-3-(5-hydroxy-2-nitrophenyl)-N-(1-phenylethyl)prop-2-enamide] | 90.4869 |
| Cc1ccc(C2=NN(C(=O)CCl)C(c3cccs3)C2)o1 (stereo not shown) [5-I17, 2-chloro-1-[3-(5-methylfuran-2-yl)-5-(thiophen-2-yl)-4,5-dihydro-1H-pyrazol-1-yl]ethan-1-one] | 104.189 |
| Cc1cc(C(=O)CCl)c(C)n1CCc1ccccc1 [10-B18, 2-chloro-1-[2,5-dimethyl-1-(2-phenylethyl)-1H-pyrrol-3-yl]ethan-1-one] | 102.188 |
| CCOc1ccc(C(=O)C(C)Cl)cc1 (stereo not shown) [10-G06, 2-chloro-1-(4-ethoxyphenyl)propan-1-one] | 80.3125 |
| C=CC(=O)N[C@H]1CCCC[C@H]1c1ccnn1C (racemic) [2-G18, rac-N-[(1R,2S)-2-(1-methyl-1H-pyrazol-5-yl)cyclohexyl]prop-2-enamide] | 119.408 |

From paper PMC11995724, “Antibiotic target discovery by integrated phenotypic and activity-based profiling of electrophilic fragments” (Cell chemical biology, 2025)
